Reference: publication PMC7618776, “Direct recruitment of Mis18 to interphase spindle pole bodies promotes CENP-A chromatin assembly” (Current biology : CB, 2023)
Results are given in words; binding and its absence hold for the method and conditions named. For part of these data: In cells and extracts the contact can be indirect. Some entries that bind do so weakly or less than the wild type. For part of these data: Tags and fused reporters may be left off the sequences shown.

Protein sequences, listed by entry. Tags and fused reporters are not part of them. Lines headed by an entry give the natural chain unless they say otherwise; changes in a name come on top. Residues count along the entry.
UniProt Q09825: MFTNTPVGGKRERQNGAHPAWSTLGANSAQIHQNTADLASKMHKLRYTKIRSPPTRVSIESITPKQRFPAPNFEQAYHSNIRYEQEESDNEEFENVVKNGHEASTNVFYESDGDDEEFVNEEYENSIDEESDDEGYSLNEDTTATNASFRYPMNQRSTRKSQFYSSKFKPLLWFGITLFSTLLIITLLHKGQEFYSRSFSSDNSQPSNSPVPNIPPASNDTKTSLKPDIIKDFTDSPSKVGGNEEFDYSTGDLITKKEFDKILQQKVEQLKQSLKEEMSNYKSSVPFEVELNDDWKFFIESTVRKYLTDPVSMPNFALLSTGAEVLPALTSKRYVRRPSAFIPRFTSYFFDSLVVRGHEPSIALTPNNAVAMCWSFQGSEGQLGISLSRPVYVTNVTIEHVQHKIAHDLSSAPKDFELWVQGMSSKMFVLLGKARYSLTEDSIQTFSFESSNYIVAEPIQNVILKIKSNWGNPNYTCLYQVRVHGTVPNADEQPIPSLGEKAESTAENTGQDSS
6His-MBP-Sad1(2-167): residues 2-167 of Q09825

B1: 6His-Mis18 full length (protein, UniProt Q9P802 1-194)
chain: MSQTETSHSGYIDFKKESQPSVFQCKKCFQIVGDSNAWVISHREYLSFTLSDAVENSVRVEDTFKRSDDGLCVYSELSCTRCNEVIGKVYNSTPIYLDDIRDMYTFSMDKLQAYQLGNKTVNPEGLTRYQVDLEMREDIIKLKSFCLSLYEKFELHDETLRSVKETISSLKKPKIEGKEGKKEKARTYSKRTRK
B2: full length Mis18-3V5 (protein, UniProt Q9P802 1-194)
chain: B1 chain
B3: Mis18-3Flag (protein, UniProt Q9P802 1-194)
chain: B1 chain
B4: 6His-3C-Mis18(1-120) (domain or fragment, UniProt Q9P802 1-120)
chain: MSQTETSHSGYIDFKKESQPSVFQCKKCFQIVGDSNAWVISHREYLSFTLSDAVENSVRVEDTFKRSDDGLCVYSELSCTRCNEVIGKVYNSTPIYLDDIRDMYTFSMDKLQAYQLGNKT
B5: 6His-msfGFP-TEV-Mis18(121-194) (domain or fragment, UniProt Q9P802 121-194)
chain: VNPEGLTRYQVDLEMREDIIKLKSFCLSLYEKFELHDETLRSVKETISSLKKPKIEGKEGKKEKARTYSKRTRK
B6: 6His-3C-Mis18(1-168) (domain or fragment, UniProt Q9P802 1-168)
chain: MSQTETSHSGYIDFKKESQPSVFQCKKCFQIVGDSNAWVISHREYLSFTLSDAVENSVRVEDTFKRSDDGLCVYSELSCTRCNEVIGKVYNSTPIYLDDIRDMYTFSMDKLQAYQLGNKTVNPEGLTRYQVDLEMREDIIKLKSFCLSLYEKFELHDETLRSVKETIS

What was measured:
[1] = target: 6His-Sad1(2-167) (S. pombe) (UniProt Q09825); assay: SEC; His-tagged Mis18 full length and Sad1(2-167) expressed individually or co-expressed in E. coli, affinity purified (TALON), Superdex 200 10/300 GL; 20 mM HEPES pH 7.0, 150 mM NaCl, 2 mM DTT; both purified
Sad1-3Flag (S. pombe) = Sad1-3Flag (S. pombe) (UniProt Q09825); assay: co-IP; anti-V5 or anti-Flag M2 antibodies cross-linked to Protein G Dynabeads, S. pombe cell extracts in SPB lysis buffer, benzonase, 4°C 2 hrs, western blotting
[2] = target: Sad1-3V5 (C-terminally 3xV5-tagged Sad1) (S. pombe) (UniProt Q09825); assay: as above
[3] = target: 6His-MBP-Sad1(2-167) (S. pombe) (UniProt Q09825); assay: pull-down; 6His-MBP-Sad1(2-167) or 6His-MBP on amylose resin mixed with candidate binding proteins, each protein at 5 μM; 20 mM HEPES pH 7.0, 150 mM NaCl, 1 mM TCEP, 0.01% Tween-20; 4°C 1 hr; Coomassie-stained SDS-PAGE; both purified

Row | binding [3] | also measured | Binder
1 |  | binding [1]: binds | B1
2 |  | binding (Sad1-3Flag (S. pombe)): binds | B2
3 |  | binding [2]: binds | B3
4 | no binding (tested: 5 μM) |  | B4
5 | no binding (tested: 5 μM) |  | B5
6 | no binding (tested: 5 μM) |  | B6
